According to the supplement of paper PMC10724272:

What was measured:
Assay in all cases: CLSI broth microdilution.
[1] = compound: Nc1[nH]c(=O)ncc1F [flucytosine]
[2] = compound: C[C@@H](c1ncncc1F)[C@](O)(Cn1cncn1)c1ccc(F)cc1F [voriconazole]
[3] = compound: CC[C@H](C)C[C@H](C)CCCCCCCCC(=O)N[C@H]1C[C@@H](O)[C@@H](NCCN)NC(=O)[C@@H]2[C@@H](O)CCN2C(=O)[C@H]([C@H](O)CCN)NC(=O)[C@H]([C@H](O)[C@@H](O)c2ccc(O)cc2)NC(=O)[C@@H]2C[C@@H](O)CN2C(=O)[C@H]([C@@H](C)O)NC1=O [caspofungin]
[4] = compound: C[C@@H]1[C@H](O)[C@@H](C)/C=C/C=C/C=C/C=C/C=C/C=C/C=C/[C@H](O[C@@H]2O[C@H](C)[C@@H](O)[C@H](N)[C@@H]2O)C[C@@H]2O[C@](O)(C[C@@H](O)C[C@@H](O)[C@H](O)CC[C@@H](O)C[C@@H](O)CC(=O)O[C@H]1C)C[C@H](O)[C@H]2C(=O)O [amphotericin B]
[5] = compound: CC[C@@H]([C@H](C)O)n1ncn(-c2ccc(N3CCN(c4ccc(OC[C@@H]5CO[C@@](Cn6cncn6)(c6ccc(F)cc6F)C5)cc4)CC3)cc2)c1=O [posaconazole]
[6] = compound: CCC(C)n1ncn(-c2ccc(N3CCN(c4ccc(OCC5COC(Cn6cncn6)(c6ccc(Cl)cc6Cl)O5)cc4)CC3)cc2)c1=O [itraconazole]
[7] = compound: CCCCCOc1ccc(-c2ccc(-c3ccc(C(=O)N[C@H]4C[C@@H](O)[C@@H](O)NC(=O)[C@@H]5[C@@H](O)[C@@H](C)CN5C(=O)[C@H]([C@@H](C)O)NC(=O)[C@H]([C@H](O)[C@@H](O)c5ccc(O)cc5)NC(=O)[C@@H]5C[C@@H](O)CN5C(=O)[C@H]([C@@H](C)O)NC4=O)cc3)cc2)cc1 [anidulafungin]
[8] = compound: OC(Cn1cncn1)(Cn1cncn1)c1ccc(F)cc1F [fluconazole]
[9] = compound: CCCCCOc1ccc(-c2cc(-c3ccc(C(=O)N[C@H]4C[C@@H](O)[C@@H](O)NC(=O)[C@@H]5[C@@H](O)[C@@H](C)CN5C(=O)[C@H]([C@H](O)CC(N)=O)NC(=O)[C@H]([C@H](O)[C@@H](O)c5ccc(O)c(OS(=O)(=O)O)c5)NC(=O)[C@@H]5C[C@@H](O)CN5C(=O)[C@H]([C@@H](C)O)NC4=O)cc3)no2)cc1 [micafungin]

Row | Test System | MIC [1] | MIC [2] | MIC [3] | MIC [4] | MIC [5] | MIC [6] | MIC [7] | MIC [8] | MIC [9]
1 | Candida tropicalis isolate 285 (ERG11 copies: 2, Erg11p: no key change) | ≤ 0.06 mg/L [S] | 0.25 µg/mL | 0.03 mg/L [S] | 0.5 mg/L [S] | 0.25 mg/L [S] | 0.25 mg/L [S] | 0.03 mg/L [S] | 2 mg/L [S] | 0.03 mg/L [S]
2 | Candida tropicalis isolate 385 (ERG11 copies: 2, Erg11p: no key change) | 0.12 mg/L [S] | 1 mg/L [R] | 0.06 mg/L [S] | 1 mg/L [S] | 0.5 mg/L [R] | 0.5 mg/L [S] | 0.12 mg/L [S] | 16 mg/L [R] | 0.06 mg/L [S]
3 | Candida tropicalis isolate 337 (ERG11 copies: 2, Erg11p: no key change) | 0.12 mg/L [S] | 0.12 mg/L [S] | 0.06 mg/L [S] | 2 mg/L [S] | 0.25 mg/L [S] | 0.25 mg/L [S] | 0.12 mg/L [S] | 2 mg/L [S] | 0.03 mg/L [S]
4 | Candida tropicalis isolate 189 (ERG11 copies: 2, Erg11p: no key change) | ≤ 0.06 mg/L [S] | ≥ 8 mg/L [R] | 0.06 mg/L [S] | 0.5 mg/L [S] | 1 mg/L [R] | 0.5 mg/L [S] | 0.12 mg/L [S] | 256 mg/L [R] | 0.06 mg/L [S]
5 | Candida tropicalis isolate 316 (ERG11 copies: 2, Erg11p: Y132F, S154F (heterozygous)) | ≤ 0.06 mg/L [S] | ≥ 8 mg/L [R] | 0.06 mg/L [S] | 1 mg/L [S] | ≥ 8 mg/L [R] | ≥ 16 mg/L [R] | 0.25 mg/L [S] | 256 mg/L [R] | 0.06 mg/L [S]
6 | Candida tropicalis isolate 101 (ERG11 copies: 2, Erg11p: no key change) | 0.12 mg/L [S] | ≤ 0.008 mg/L [S] | 0.12 mg/L [S] | 0.5 mg/L [S] | 0.03 mg/L [S] | 0.12 mg/L [S] | ≤ 0.015 mg/L [S] | 0.5 mg/L [S] | 0.015 mg/L [S]
7 | Candida tropicalis isolate 91 (ERG11 copies: 2, Erg11p: no key change) | 0.12 mg/L [S] | 0.06 mg/L [S] | 0.25 mg/L [S] | 1 mg/L [S] | 0.12 mg/L [S] | 0.12 mg/L [S] | 0.25 mg/L [S] | 1 mg/L [S] | 0.06 mg/L [S]
8 | Candida tropicalis isolate 109 (ERG11 copies: 2, Erg11p: no key change) | ≤ 0.06 mg/L [S] | 0.06 mg/L [S] | 0.03 mg/L [S] | 1 mg/L [S] | 0.12 mg/L [S] | 0.12 mg/L [S] | 0.03 mg/L [S] | 1 mg/L [S] | 0.03 mg/L [S]
9 | Candida tropicalis isolate 239 (ERG11 copies: 2, Erg11p: no key change) | 0.12 mg/L [S] | 0.06 mg/L [S] | 0.25 mg/L [S] | 1 mg/L [S] | 0.12 mg/L [S] | 0.12 mg/L [S] | 0.25 mg/L [S] | 1 mg/L [S] | 0.06 mg/L [S]
10 | Candida tropicalis isolate 284 (ERG11 copies: 6, Erg11p: Y132F, S154F (heterozygous)) | ≤ 0.06 mg/L [S] | ≥ 8 mg/L [R] | 0.015 mg/L [S] | 1 mg/L [S] | 1 mg/L [R] | 1 mg/L [R] | ≤ 0.015 mg/L [S] | 256 mg/L [R] | 0.015 mg/L [S]
11 | Candida tropicalis isolate 79 (ERG11 copies: 2, Erg11p: no key change) | ≤ 0.06 mg/L [S] | 0.015 mg/L [S] | 0.5 µg/mL | 2 mg/L [S] | 0.06 mg/L [S] | 0.12 mg/L [S] | 1 mg/L [R] | 1 mg/L [S] | 1 mg/L [R]
12 | Candida tropicalis isolate 47 (ERG11 copies: 8, Erg11p: Y132F, S154F (heterozygous)) | ≤ 0.06 mg/L [S] | ≥ 8 mg/L [R] | 0.03 mg/L [S] | 1 mg/L [S] | 1 mg/L [R] | 1 mg/L [R] | 0.06 mg/L [S] | 512 mg/L [R] | 0.03 mg/L [S]
13 | Candida tropicalis isolate 70 (ERG11 copies: 7, Erg11p: Y132F, S154F (heterozygous)) | ≤ 0.06 mg/L [S] | ≥ 8 mg/L [R] | 0.03 mg/L [S] | 1 mg/L [S] | 1 mg/L [R] | 1 mg/L [R] | ≤ 0.015 mg/L [S] | 256 mg/L [R] | 0.03 mg/L [S]
14 | Candida tropicalis isolate 76 (ERG11 copies: 8, Erg11p: Y132F, S154F (heterozygous)) | ≤ 0.06 mg/L [S] | ≥ 8 mg/L [R] | 0.12 mg/L [S] | 0.5 mg/L [S] | 1 mg/L [R] | 0.5 mg/L [S] | 0.12 mg/L [S] | 256 mg/L [R] | 0.06 mg/L [S]
15 | Candida tropicalis isolate 38 (ERG11 copies: 2, Erg11p: no key change) | ≤ 0.06 mg/L [S] | 0.12 mg/L [S] | 0.12 mg/L [S] | 0.5 mg/L [S] | 0.5 mg/L [R] | 0.25 mg/L [S] | 0.12 mg/L [S] | 2 mg/L [S] | 0.06 mg/L [S]
16 | Candida tropicalis isolate 269 (ERG11 copies: 6, Erg11p: Y132F, S154F (heterozygous)) | ≤ 0.06 mg/L [S] | ≥ 8 mg/L [R] | 0.03 mg/L [S] | 1 mg/L [S] | 0.5 mg/L [R] | 0.5 mg/L [S] | 0.12 mg/L [S] | 256 mg/L [R] | 0.03 mg/L [S]
17 | Candida tropicalis isolate 268 (ERG11 copies: 2, Erg11p: no key change) | ≤ 0.06 mg/L [S] | 0.12 mg/L [S] | 0.03 mg/L [S] | 1 mg/L [S] | 0.5 mg/L [R] | 0.25 mg/L [S] | 0.03 mg/L [S] | 2 mg/L [S] | 0.03 mg/L [S]
18 | Candida tropicalis isolate 53 (ERG11 copies: 2, Erg11p: no key change) | ≤ 0.06 mg/L [S] | 0.06 mg/L [S] | 0.03 mg/L [S] | 1 mg/L [S] | 0.06 mg/L [S] | 0.12 mg/L [S] | ≤ 0.015 mg/L [S] | 1 mg/L [S] | 0.03 mg/L [S]

MIC of invasive clinical C. tropicalis isolates, CLSI broth microdilution (fluconazole 0.12-256 mg/L, up to 1,024 for the azole-resistant cluster and its neighbour group; other ranges not stated); higher = less susceptible. Call: susceptible or wild type [S] / resistant or non-wild type [R] by CLSI breakpoints or cut-offs; intermediate and dose-dependent carry no call. '<=' and '>=' at the end values are inferred; the source marks only some of them. Isolates are numbered anew.
